Measured values published in paper PMC4277425.
No constants are given. Whether binding was seen depends on the method and setting. For some of these results: Binding seen in cells or lysates may run through a third protein. Some results given as binding are weak or reduced against the parent protein; the word gives no strength. For some of these results: Where a sequence is shown, tags or fusion partners need not be part of it.

Chains of the proteins cited; added tags and fusions are not shown.
UniProt Q96QD5: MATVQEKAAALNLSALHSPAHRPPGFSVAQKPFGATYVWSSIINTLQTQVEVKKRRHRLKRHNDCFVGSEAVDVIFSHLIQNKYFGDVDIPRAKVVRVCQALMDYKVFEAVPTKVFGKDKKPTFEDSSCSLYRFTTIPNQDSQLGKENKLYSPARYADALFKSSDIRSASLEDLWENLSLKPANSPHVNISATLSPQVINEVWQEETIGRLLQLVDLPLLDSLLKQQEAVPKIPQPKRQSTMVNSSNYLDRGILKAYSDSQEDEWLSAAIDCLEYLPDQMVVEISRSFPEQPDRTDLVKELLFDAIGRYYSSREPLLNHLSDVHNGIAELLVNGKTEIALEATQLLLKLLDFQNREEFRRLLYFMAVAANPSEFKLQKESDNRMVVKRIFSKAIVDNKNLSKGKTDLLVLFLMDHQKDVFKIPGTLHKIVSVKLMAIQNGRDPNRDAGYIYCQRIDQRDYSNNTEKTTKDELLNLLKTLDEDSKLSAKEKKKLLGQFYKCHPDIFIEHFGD

Experiments:
[1] = target: FLAG-tagged DEPDC7 (human) (UniProt Q96QD5); test: co-IP; HEK-293 cotransfected with FLAG-DEPDC7 and HA-tagged constructs; lysates (150 mM NaCl, 20 mM Hepes pH 7.4, 1% Triton X-100, 10% glycerol) immunoprecipitated with anti-FLAG mAb, blot with anti-HA
[2] = target: T1, CARMA3 (UniProt Q9BWT7); test: co-IP; HEK-293 transfected with FLAG-tagged constructs; lysates immunoprecipitated with anti-CARMA3 antiserum, immunoblot
T1 sequence: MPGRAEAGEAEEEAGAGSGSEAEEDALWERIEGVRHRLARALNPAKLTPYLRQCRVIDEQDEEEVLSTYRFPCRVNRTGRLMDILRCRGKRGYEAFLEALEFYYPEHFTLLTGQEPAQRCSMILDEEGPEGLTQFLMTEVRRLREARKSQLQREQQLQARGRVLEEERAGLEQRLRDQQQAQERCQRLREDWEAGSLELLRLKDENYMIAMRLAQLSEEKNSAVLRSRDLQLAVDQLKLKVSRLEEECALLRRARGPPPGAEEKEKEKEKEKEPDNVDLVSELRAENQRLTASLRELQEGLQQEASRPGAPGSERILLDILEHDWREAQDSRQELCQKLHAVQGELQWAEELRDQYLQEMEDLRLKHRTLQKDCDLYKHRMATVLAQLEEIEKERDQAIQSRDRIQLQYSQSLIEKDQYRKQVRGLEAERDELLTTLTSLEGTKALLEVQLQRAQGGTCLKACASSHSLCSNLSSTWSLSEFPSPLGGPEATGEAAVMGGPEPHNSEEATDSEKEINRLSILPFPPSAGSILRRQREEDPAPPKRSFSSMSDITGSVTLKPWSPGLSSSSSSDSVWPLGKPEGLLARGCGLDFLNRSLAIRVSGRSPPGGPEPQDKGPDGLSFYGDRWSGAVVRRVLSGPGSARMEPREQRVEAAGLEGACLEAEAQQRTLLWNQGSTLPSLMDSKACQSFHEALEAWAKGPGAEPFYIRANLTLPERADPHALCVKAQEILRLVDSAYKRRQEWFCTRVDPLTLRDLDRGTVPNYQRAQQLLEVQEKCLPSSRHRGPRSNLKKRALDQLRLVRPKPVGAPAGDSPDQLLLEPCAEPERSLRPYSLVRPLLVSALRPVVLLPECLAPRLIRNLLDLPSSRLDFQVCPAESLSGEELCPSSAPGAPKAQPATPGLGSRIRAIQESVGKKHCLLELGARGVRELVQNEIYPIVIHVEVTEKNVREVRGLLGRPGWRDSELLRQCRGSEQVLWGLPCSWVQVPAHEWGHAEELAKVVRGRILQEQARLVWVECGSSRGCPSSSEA

[3] = target: endogenous DEPDC7 (human (endogenous in HEK-293)) (UniProt Q96QD5); test: co-IP; HEK-293 transfected with FLAG-tagged constructs; lysates immunoprecipitated with anti-DEPDC7 antiserum (endogenous DEPDC7), immunoblot
[4] = target: CARMA2short fused to the DNA-binding domain of GAL4 (UniProt Q9BXL6); test: two-hybrid; library screen, Matchmaker system, yeast AH109; GAL4DBD-CARMA2sh as bait against a human cDNA library in pACT2 (GAL4TAD); 2x10^6 clones; selective growth, beta-galactosidase reporter
[5] = target: CARMA2short fused to the DNA-binding domain of GAL4 (UniProt Q9BXL6); test: two-hybrid; direct test in yeast AH109: DEPDC7 fused to GAL4-TAD with the indicated cDNAs fused to GAL4-DBD; growth on selective media, five to ten independent transformants
[6] = target: endogenous DEPDC7 (human (endogenous in HEK-293)) (UniProt Q96QD5); test: co-IP; endogenous proteins, HEK-293 lysates immunoprecipitated with the indicated antibodies, immunoblot; anti-myc antisera as control IgG

Molecule: HA-tagged CARMA2sh (from UniProt Q9BXL6-2 1-740)
- binding [1]: binds

Molecule: endogenous DEPDC7 (from UniProt Q96QD5 1-511)
- binding [2]: binds

Molecule: HA-tagged CARMA2 PDZ domain (550-690) (from UniProt Q9BXL6 550-690) (domain or fragment)
- binding [1]: no binding

Molecule: HA-tagged CARMA2 CARD domain (1-123) (from UniProt Q9BXL6 1-123) (domain or fragment)
- binding [1]: no binding

Molecule: FLAG-tagged CARMA2sh (from UniProt Q9BXL6-2 1-740)
- binding [3]: binds

Molecule: DEPDC7 fused to the GAL4 transcription activation domain (from UniProt Q96QD5 1-511)
- binding [4]: binds
- binding [5]: binds

Molecule: HA-tagged CARMA2cardless (from UniProt Q9BXL6-3 1-434)
- binding [1]: binds

B1: HA-tagged CARMA2 region 123-550 (coiled coil and linker region) (domain or fragment, UniProt Q9BXL6 123-550)
chain: KLTECLAGAIGSLQEELNQEKGQKEVLLRRCQQLQEHLGLAETRAEGLHQLEADHSRMKREVSAHFHEVLRLKDEMLSLSLHYSNALQEKELAASRCRSLQEELYLLKQELQRANMVSSCELELQEQSLRTASDQESGDEELNRLKEENEKLRSLTFSLAEKDILEQSLDEARGSRQELVERIHSLRERAVAAERQREQYWEEKEQTLLQFQKSKMACQLYREKVNALQAQVCELQKERDQAYSARDSAQREISQSLVEKDSLRRQVFELTDQVCELRTQLRQLQAEPPGVLKQEARTREPCPREKQRLVRMHAICPRDDSDCSLVSSTESQLLSDLSATSSRELVDSFRSSSPAPPSQQSLYKRVAEDFGEEPWSFSSCLEIPEGDPGALPGAKAGDPHLDYELLDTADLPQLESSLQPVSPGRLDV
- binding [1]: binds

B2: endogenous Net1 (protein, UniProt Q7Z628 1-596)
chain: MEPELAAQKQPRPRRRSRRASGLSTEGATGPSADTSGSELDGRCSLRRGSSFTFLTPGPNWDFTLKRKRREKDDDVVSLSSLDLKEPSNKRVRPLARVTSLANLISPVRNGAVRRFGQTIQSFTLRGDHRSPASAQKFSSRSTVPTPAKRRSSALWSEMLDITMKESLTTREIRRQEAIYEMSRGEQDLIEDLKLARKAYHDPMLKLSIMSEEELTHIFGDLDSYIPLHEDLLTRIGEATKPDGTVEQIGHILVSWLPRLNAYRGYCSNQLAAKALLDQKKQDPRVQDFLQRCLESPFSRKLDLWSFLDIPRSRLVKYPLLLKEILKHTPKEHPDVQLLEDAILIIQGVLSDINLKKGESECQYYIDKLEYLDEKQRDPRIEASKVLLCHGELRSKSGHKLYIFLFQDILVLTRPVTRNERHSYQVYRQPIPVQELVLEDLQDGDVRMGGSFRGAFSNSEKAKNIFRIRFHDPSPAQSHTLQANDVFHKQQWFNCIRAAIAPFQSAGSPPELQGLPELHEECEGNHPSARKLTAQRRASTVSSVTQVEVDENAYRCGSGMQMAEDSKSLKTHQTQPGIRRARDKALSGGKRKETLV
- binding [6]: binds
